About 100 (0.036%) of roughly 280,000 compounds were called active. The inconclusive results got no clear call from the source; some entries with a clear call stand among them for comparison. Calls follow the shape of the dose curve; as a rule, active = well fitted inhibition curve with a large enough effect in the signal ratio, with a control signal flat (not every such curve was filed as active); inconclusive = small, poorly fitted or top-dose-only effect, or effect the other way, or a change in a side signal; inactive = no such curve, though single readings can be large or run the other way; the % refers to the signal ratio. Potencies of inconclusive entries are doubtful fits and often do not repeat. A note “side channel” means that the fit belongs to a control or component signal, not to the main read-out.
These molecules were tested against Muscleblind-like protein 1 (Homo sapiens) (UniProt Q9NR56) (assay: qHTS Assay for Inhibitors of MBNL1-poly(CUG) RNA binding). Conditions: TR-FRET MBNL1-His/biotin-(CUG)12 binding, 665/545 ratio; activity change, negative = inhibition: at 57.5 µM (top of the series).
Sequence of UniProt Q9NR56 (Q9NR56 whole entry, looked up): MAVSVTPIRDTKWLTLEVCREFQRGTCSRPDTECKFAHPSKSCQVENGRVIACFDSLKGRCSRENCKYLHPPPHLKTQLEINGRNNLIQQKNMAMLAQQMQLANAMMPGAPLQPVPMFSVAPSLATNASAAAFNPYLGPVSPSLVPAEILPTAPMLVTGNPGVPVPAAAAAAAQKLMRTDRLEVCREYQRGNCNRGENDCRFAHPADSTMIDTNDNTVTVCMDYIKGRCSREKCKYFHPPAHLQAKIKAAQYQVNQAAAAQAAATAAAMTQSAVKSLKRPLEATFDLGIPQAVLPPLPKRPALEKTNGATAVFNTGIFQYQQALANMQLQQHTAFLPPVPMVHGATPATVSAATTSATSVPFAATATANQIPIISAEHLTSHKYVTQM
In short: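 TR-FRET readout: Ex 340 nm, 665/545 nm emission ratio, normalized to buffer-only (basal) and MBNL1-(CUG)12 controls. Complex of MBNL1-His with Biotin-(CUG)12, compounds 92 nM–58 uM, incubated 60 min at room temperature.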
In the case of `O=C(OCC(=O)N1CCOCC1)c1ccc(N2CCOCC2)c([N+](=O)[O-])c1`, the Potency is reported as inconclusive: 15.8 µM [quencher, side channel, partial curve]. In the case of `CCn1c(CNc2cccc(C(F)(F)F)c2)n[nH]c1=S`, the “activity change, negative = inhibition” value is reported as inactive: -3.41%. In the case of `CCOCCCn1c(=NC(=O)c2ccco2)c(C(=O)OCC)cc2c(=O)n3cccc(C)c3nc21`, the Potency is reported as inconclusive: 8.91 µM [quencher, side channel, partial curve]. `Cc1cc(C)n(CC(=O)c2ccc(Cl)cc2)n1` was tested, and the “activity change, negative = inhibition” value was inactive: -15.9%. For `Cc1cccc(-n2c(O)c(C=Nc3ccc4c(c3)OCO4)c3ccccc3c2=O)n1`, the Potency was inconclusive: 17.8 µM [quencher, side channel, partial curve]. For `COc1cccc(N/C=C/C(=O)c2ccc(OC)c(OC)c2)c1`, the Potency was inconclusive: 5.62 µM [quencher, side channel, partial curve]. In the case of `O=C(CN1CCCC1)N1CCCc2c1c(=O)oc1ccc(OCc3ccccc3)cc21`, the Potency is reported as inconclusive: 10 µM [quencher, side channel, partial curve]. In the case of `Cc1nc2ccccc2cc1C(=O)N/N=C/c1ccccc1[N+](=O)[O-]`, the Potency is reported as inconclusive: 14.1 µM [quencher, side channel, partial curve]. In the case of `COCc1[nH]c(=S)c(C#N)cc1C(=O)OC`, the “activity change, negative = inhibition” value is reported as inactive: 11.9%. For `Cc1ccc(C2C(C#N)=C(N)SC(N)=C2C#N)c(C)c1`, the Potency was inconclusive: 35.5 µM [fluorescent, side channel, single point]. With `CCOc1cc(/C=N/Nc2nn3cnnc3c3ccccc23)ccc1O` the Potency was inconclusive: 25.1 µM [quencher, side channel, partial curve]. With `C=CCc1c(C)nc(C)nc1N/N=C/c1ccccc1O` the Potency was inconclusive: 35.5 µM [quencher, side channel, single point]. For `CC(C)c1ccc(N(CC(=O)N/N=C/c2ccc(OC3CSC3)cc2)S(=O)(=O)c2ccccc2)cc1`, the Potency was inconclusive: 0.316 µM [fluorescent, side channel, partial curve]. `COc1ccc([N+](=O)[O-])cc1N(CC1CO1)S(=O)(=O)c1ccc(C)cc1` (configuration not stated) was tested, and the Potency was inconclusive: 12.6 µM [quencher, side channel, partial curve]. In the case of `CCN(CC)S(=O)(=O)c1ccc(N/N=C(\C)c2ccc(OC)cc2O)nc1`, the “activity change, negative = inhibition” value is reported as inactive: -3.59%. `COc1ccc(Cl)cc1NC(=O)CSc1nnc(COc2ccccc2)n1N` was tested, and the Potency was inconclusive: 5.01 µM [quencher, side channel, single point]. With `CC(=O)c1ccc(Oc2ncnc(N)c2[N+](=O)[O-])cc1` the Potency was inconclusive: 3.16 µM [quencher, full curve]. In the case of `CN(C)c1c(-c2ccccc2)cc(-c2ccccc2)[nH]c1=O`, the Potency is reported as inconclusive: 14.1 µM [quencher, side channel, partial curve]. In the case of `O=C(Nc1cccnc1)c1ccc(N2CCCC2)c([N+](=O)[O-])c1`, the Potency is reported as inconclusive: 25.1 µM [quencher, side channel, partial curve]. For `CCCCCC(C)NC(=S)NC(=O)c1cc(S(=O)(=O)N2CCOCC2)ccc1C` (configuration not stated), the Potency was inconclusive: 0.794 µM [quencher, side channel, full curve, poor fit]. In the case of `O=C(O)c1cccc(NC(=O)c2ccc3c(c2)C(=O)N(CC2CCCO2)C3=O)c1` (configuration not stated), the Potency is reported as inconclusive: 14.1 µM [quencher, side channel, partial curve]. `COc1ccccc1C(=O)NCC(=O)NC(C)CCc1ccccc1` (configuration not stated) was tested, and the Potency was inconclusive: 28.2 µM [quencher, side channel, partial curve]. For `COc1ccc(CNC(=O)c2ccc(CS(=O)Cc3cccc(Cl)c3)o2)cc1` (configuration not stated), the Potency was inconclusive: 6.31 µM [fluorescent, side channel, single point]. With `CCCCn1c(N)c(N(CCOC)C(=O)CCc2ccc(OC)cc2)c(=O)[nH]c1=O` the Potency was inconclusive: 0.141 µM [fluorescent, side channel, full curve, poor fit]. With `CC1CCN(c2ccc(C(=O)OCC(=O)NCCN3C(=O)CSC3=O)cc2[N+](=O)[O-])CC1` the Potency was inconclusive: 15.8 µM [quencher, side channel, partial curve]. For `Cc1ccccc1N1C(=O)c2cccc([N+](=O)[O-])c2C1=O`, the Potency was inconclusive: 7.08 µM [quencher, side channel, partial curve]. For `CCn1c2ccccc2c2cc(C3C(C#N)=C(C)NC(C)=C3C#N)ccc21`, the “activity change, negative = inhibition” value was inactive: -3.31%. `O=C(/C=C/c1ccncc1)c1ccc(NC(=O)c2ccccc2F)cc1` was tested, and the activity change, negative = inhibition was inactive: -3.25% [at 11.5 µM]. With `COc1cc(CN2CCN(c3cccc(C)c3C)CC2)cc(OC)c1O` the Potency was inconclusive: 79.4 µM [inhibitor, single point]. With `COC(=O)c1cc(OC)c(OC)cc1NC(=O)CCC1CCCC1` the Potency was inconclusive: 3.55 µM [quencher, side channel, single point]. In the case of `c1ccc(-c2noc(CSc3nnc(Cc4cccs4)n3-c3ccccc3)n2)cc1`, the “activity change, negative = inhibition” value is reported as inactive: 3.94%. For `CCS(=O)(=O)c1ccc2oc(Nc3ccc(C(C)C)cc3)nc2c1`, the Potency was inconclusive: 20 µM [activator, partial curve]. With `Fc1ccc(Nc2cccc3nccnc23)cc1` the Potency was inconclusive: 17.8 µM [quencher, side channel, partial curve]. In the case of `O=C(NCc1ccco1)c1ccc2nc3sc4c(c3c(=O)n2c1)CCCC4`, the Potency is reported as inconclusive: 5.62 µM [quencher, side channel, full curve]. In the case of `COc1ccc2[nH]c3c(=O)n(/N=C/[C@H]4C(C)C=C(C)CC4C)c(=O)[nH]c3c2c1` (some centres not stated), the Potency is reported as inconclusive: 25.1 µM [quencher, side channel, partial curve]. With `Cc1nnc(NC(=O)c2sc3nc(-c4cccs4)cc(C(F)(F)F)c3c2N)s1` the “activity change, negative = inhibition” value was inactive: 13%. For `Cc1ccc(C)c(NC(=O)c2oc(=O)c3ccccc3c2-c2ccccc2)c1`, the Potency was inconclusive: 35.5 µM [quencher, side channel, single point].

— PubChem BioAssay AID2675 (National Center for Advancing Translational Sciences (NCATS), 2010)
% is scaled to controls: 0 for no effect and ±100 for the full control effect; potency is read from the fitted curve at half-maximal effect; tags tell the direction and shape of the fitted curve or compound fluorescence and quenching.
